Measured values reported in ChEMBL document CHEMBL4888484, “Replenishing the malaria drug discovery pipeline: Screening and hit evaluation of the MMV Hit Generation Library 1 (HGL1) against asexual blood stage Plasmodium falciparum ,using a nano luciferase reporter read-out” (2022).
Among all 150,000 compounds or so, about 540 (0.36%) showed an effect of 50% or more. The list shows a part of the results.

test system: Plasmodium falciparum; test: Primary screen in NF54 nanoGlo assay, in single point, at 2uM, 72h; a lower Z score goes with more inhibition; format: functional, Erythrocyte; conditions: timepoint 72 hour

Compound | % Inhibition | Z score
COc1ccc(C(C)(C)C)cc1S(=O)(=O)NC(C)C | -9% | 1.47
COCCN1CCC[C@@](O)(CN2CCc3[nH]c4c(C)cccc4c3C2)C1=O | 0% | 0
CCC(=O)N1CCN(C(=O)OC(C)(C)C)[C@@H](C)C1 | -11% | 1.58
Cc1ccc2c(Nc3cccc(Cl)c3)c(C(=O)N3CCOCC3)cnc2n1 | -2% | 0.25
C=CCn1cc(CN[C@@H](C)CCc2ccco2)c(C)n1 | -1% | 0.11
CC(C)c1nnc(CNC(C)(C)c2ccc(F)cc2)o1 | -2% | 0.47
O=C(c1ccncc1F)N1CC2CC1CO2 (stereo not given) | -9% | 1.63
CS(=O)(=O)CCCC(=O)N1CCOc2ccccc2[C@@H]1CO | 9% | -1.61
Cc1cccnc1CN1CCC[C@H](N(C)Cc2ncccc2C)CC1 | 1% | -0.14
O=C(O)C1CCN(C(=O)C2CCCc3ccccc32)C1 (stereo not given) | 1% | -0.08
O=C1N[C@@H](CC(=O)N2CCN(S(=O)(=O)N3CCCCCC3)CC2)C(=O)Nc2ccccc21 | -7% | 0.96
CCNC(=O)[C@H](C)NS(=O)(=O)c1csnc1-c1ccccc1 | 8% | -0.92
CCc1noc([C@H](C)N(C)Cc2nc3ccccc3s2)n1 | -15% | 1.92
CCc1ccc(CNC(=O)c2ccc(-c3nc(CCN(C)C(=O)Nc4cccc(C)c4)no3)cc2)cc1 | 7% | -0.73
COC1CCN(C(=O)CCc2c(C)[nH]c(=O)c(C#N)c2C)CC1 | -3% | 0.24
Cc1cc(C(=O)NCC2(c3ccccc3)CC2)n(C)n1 | 7% | -0.66
Cc1ccc(C)c(-c2cnc3sc(C)nc3c2)c1 | -5% | 0.68
CCC(CC)n1ncc(C)c1NC(=O)N(C)CC1(CO)CCOCC1 | -18% | 1.98
Cc1nc(O)cc(C2CCN(C(=O)Nc3ccc4c(c3)C[C@H](C)O4)CC2)n1 | 1% | -0.14
O=C(Cn1cc2c(n1)CCCCC2)NCCc1ccc(Cl)cc1 | -12% | 2.35
O=S(=O)(Cc1ccccc1)N(O)c1ccccc1 | 22% | -2.51
CC(C)[C@H](NCCC(=O)c1ccc(Br)cc1)C(=O)O | -13% | 2.47

Compound | % Inhibition | Z score
Cc1[nH]ncc1CCCN[C@H]1CCCCC12CCCCC2 | 0% | 0.02
NC(=O)N1CCCN(c2nccc3cc(C(F)(F)F)ccc23)CC1 | -5% | 0.88
Cc1ccc(C(=O)N[C@H]2CC(=O)N(Cc3cccc4ccccc34)C2)c(=O)[nH]1 | 1% | -0.19
Cc1cccn2c(=O)cc(COc3ccccc3)nc12 | -10% | 1.4
CN(C)S(=O)(=O)N1CCC2(CC1)OC(=O)c1ccccc12 | -13% | 1.62
Cc1nn(C(F)F)cc1-c1ccc(C(=O)N[C@H]2CCCC[C@@H]2O)cc1 | 1% | -0.28
CCN(C(=O)c1cc(Br)c[nH]1)c1ccc(OC)nc1 | 1% | -0.18
Cc1noc(C2CCN(C(C)c3ncc(C)o3)C2)n1 (stereo not given) | -19% | 3.76
CC(C)(C)N(CC(N)=O)CC(=O)NC(=O)NC1CCCCC1 | 31% | -0.73
O=C(c1c[nH]c2ccccc12)C(O)C(c1ccccc1)N1CCN(c2ccccc2)CC1 (stereo not given) | -9% | 1.02
CC(=O)c1cccc(OS(=O)(=O)c2ccc(N3CCCC3=O)cc2)c1 | 5% | -0.69
CCNC(=O)[C@H]1CCN(c2noc(CC)n2)C1 | 4% | -0.51
CN(CCCN1CCOCC1)S(=O)(=O)c1cccnc1 | -15% | 1.96
O=C(COc1ccc(CO)cc1)N[C@H]1CCC[C@H]1F | -11% | 1.44
Cc1ccc(-c2noc([C@H]3CC(=O)N(c4ccc5c(c4)OCCO5)C3)n2)cc1 | -10% | 1.07
CN(C)c1ccc(C(=O)Nc2ccccc2-c2cn3c(n2)CCCC3)nn1 | -10% | 1.93
O=C(Nc1ccc(N2CCN(C(=O)c3ccco3)CC2)c(Cl)c1)c1ccc2c(c1)OCCO2 | -23% | 2.57
O=C(N[C@H]1CCN(CCCc2ccccc2)C1=O)c1ccncc1F | 9% | -1.66
CN(C)c1cc(C(=O)OCc2ccc(Cl)cc2)ccn1 | 2% | -0.2
Cc1cc(C)c(CN2CCC(C)CC2)cc1CNCc1csc(N)n1 | 6% | -1.06
Cc1noc(CNC(=O)Nc2cc(C(C)C)on2)n1 | -9% | 1.19
CCC(=O)NCc1ccc(-c2noc(C3(c4ccc(OC)cc4)CC3)n2)s1 | -3% | 0.46

Compound | % Inhibition | Z score
CCC(=O)N1CCN(C(=O)c2scnc2C(C)C)C1 | -1% | 0.29
Cc1ccc(S(=O)(=O)N2CCN(C(=O)NCc3nccn3C)CC2)cc1 | -12% | 2.31
Cc1[nH]ncc1C(=O)Nc1ccc(NC2CCOCC2)cc1 | -7% | 1.39
O=C(O)C1CCCN1C(=O)[C@H]1CC[C@H](c2ccccc2)C1 (stereo not given in full) | -5% | 0.94
COc1cc([C@H]2CC(=O)Nc3c2cnn3Cc2ccccc2Cl)ccc1O | 8% | -0.93
O=C(c1ccc(N2C[C@@H]3c4ccccc4OC[C@]3(CO)C2)nc1)N1CCCC1 | -18% | 3.13
Cc1c(S(=O)(=O)Nc2ccc(F)cc2)cc(-c2nc(-c3ccc(F)cc3)cs2)n1C | -14% | 2.07
CS(=O)(=O)c1ccc(NCc2ccc3c(c2)CNC3)c(F)c1 | -16% | 3.2
CC(=O)N[C@H]1CN(c2nc(C)ccc2C(=O)O)C[C@@H]1c1ccc(C)cc1 | 4% | -0.56
CC[C@H](C)NC(=O)Cn1nc2cc(C)nc(N3CCc4ccccc4C3)n2c1=O | -9% | 1.4
CCCc1nc(CNc2cccc(CS(C)(=O)=O)c2C)cs1 | 3% | -0.34
N#Cc1ncn(Cc2nc3cc(C(F)(F)F)ccc3o2)c1C#N | 8% | -0.78
O=C(CCc1nnc(CCCCc2ccccc2)o1)N1CCCC[C@H]1c1ccc(F)cc1 | -5% | 0.71
COc1ccc(/C=C/c2cc(C(F)(F)F)[nH]c(=O)n2)cc1 | -7% | 1.08
Cn1cc(N2CCN(c3ncc(F)cn3)CC2)cn1 | -13% | 1.28
COc1c(F)cccc1CN1CC[C@]2(OC)CC[C@H](Oc3ccccn3)C[C@H]12 | 6% | -1.12
CC(=Cc1cn(C(C)(C)C)nn1)c1nc(C)c(C#N)c(=O)[nH]1 | 39% | -1.14
C[C@@H](CNC(=O)c1ccnc(N(C)C)c1)Cn1ccnc1 | -4% | 0.52
CC(C)(NC(=O)c1cnc2cccnn12)[C@H](O)C(F)(F)F | -15% | 1.79
O=C1c2ccccc2N[C@]2(C(=O)Nc3ccccc32)N1Cc1ccccc1 | -18% | 2.79
N#Cc1cc(N2CCCN(Cc3ccccc3)CCOCC2)ncn1 | -10% | 1.3
CC1=NO[C@@H](CNc2nc(C)ns2)C1 | -12% | 1.25

Compound | % Inhibition | Z score
COCC[C@@H](COC)NC(=O)c1c[nH]nc1-c1cnn(C)c1 | 2% | -0.42
O=C(C[C@@H]1CCN2C[C@@H]1/C=C\COc1ccccc1CN(Cc1ccccc1OC(F)(F)F)CC2=O)N1CC[C@@H](O)C1 | 19% | -2.27
CCC(CC)c1nc(CN2CCCC2=O)no1 | 7% | -0.86
CN(CCOc1ccccc1Cl)Cc1cn(C)nn1 | 0% | -0.07
COc1cc2ccccc2cc1C(=O)Nc1ccc2oc(-c3cc(Br)ccc3Cl)nc2c1 | -2% | 0.39
C[C@@H](C(=O)NCC(F)(F)F)N(C)Cc1nnc2ccccn12 | 3% | -0.39
Cc1noc(C)c1CCc1nc(-c2ccccc2)nn1C1CCN(C)CC1 | -6% | 0.74
CCCN(Cc1c(-c2ccccc2)nn(C)c1N(C)C)C(=O)c1cccs1 | -4% | 0.84
CCn1cc(S(=O)(=O)N(Cc2ccccc2)c2ccccc2)cn1 | -19% | 1.9
CCN(CC)CCNC(=O)CCCC(=O)NCCc1ccc(Cl)cc1 | 3% | -0.42
Cn1cc([C@H]2C[C@@H]2C(=O)NS(=O)(=O)C2CC3CCC2CC3)cn1 (stereo not given in full) | -1% | 0.15
Cc1noc(CCCC(=O)N2CCN(C3CCCC3O)CC2)n1 (stereo not given) | -26% | 3
CC(C)(C)C(NCC1CC1c1ccccc1)C(N)=O (stereo not given) | 9% | -1.77
Cc1nc(NC(=O)CCNC(=O)C2CC2C)sc1-c1ccccn1 (stereo not given) | -5% | 0.46
C[C@]1(c2nc(C(F)(F)c3ccc(F)cc3)no2)CCNC(=O)C1 | -7% | 1.14
CCOc1cc(CNC(=O)c2sc(Nc3ccccc3CC)nc2C)ccc1OC | 2% | -0.28
CC(C)(CCOCc1ccccc1)CNCC(C)(C)S(C)(=O)=O | -20% | 2.62
CC(C)c1ccc(C#N)c(NCCc2noc(CO)n2)n1 | 15% | -1.92
Cc1cc(-c2nc3ccccc3s2)ccc1NS(=O)(=O)c1ccc2c(c1)OCCO2 | 0% | -0.03
